Assay results: a compilation of properties of binary mixtures (doi:10.1016/j.molliq.2019.03.144)
Some of these densities may be calculated back from excess volumes.

Test: xn = mol fraction of the nth substance listed
Conditions: 96.7 kPa

c1ccncc1 + CC(=O)[O-].CC[n+]1ccn(C)c1
x2 = 0
Conditions | mass density [kg/m3]
303.15 K | 973
313.15 K | 963
323.15 K | 952.8
333.15 K | 942.7
343.15 K | 932.4
353.15 K | 922.1

CC(=O)[O-].CC[n+]1ccn(C)c1 + c1ccncc1
mass density [kg/m3]
Conditions | x1 = 0.166 | x1 = 0.318 | x1 = 0.411 | x1 = 0.52 | x1 = 0.649 | x1 = 0.806 | x1 = 0.898 | x1 = 1
303.15 K | 1015.5 | 1040.8 | – | 1064.5 | 1075.4 | 1086.3 | 1091.8 | 1097.2
308.15 K | – | 1037 | 1049.1 | – | 1072.2 | – | – | 1094.2
313.15 K | 1007 | 1033.1 | 1045.5 | 1057.7 | 1068.9 | 1080 | 1085.7 | 1091.2
318.15 K | 1002.8 | 1029.3 | 1041.9 | 1054.3 | 1065.7 | 1076.9 | 1082.6 | 1088.2
323.15 K | 998.5 | 1025.5 | 1038.3 | – | 1062.4 | 1073.8 | – | 1085.2
328.15 K | 994.3 | – | 1034.7 | 1047.5 | 1059.2 | – | 1076.6 | 1082.2
333.15 K | 990.1 | – | 1031.2 | 1044.2 | – | 1067.7 | 1073.5 | –
338.15 K | 985.8 | – | 1027.6 | 1040.8 | 1052.8 | 1064.6 | 1070.5 | 1076.3
343.15 K | – | 1010.6 | – | 1037.4 | – | 1061.6 | 1067.6 | –
348.15 K | 977.3 | 1006.9 | 1020.5 | 1034.1 | 1046.4 | 1058.5 | 1064.6 | 1070.5
353.15 K | 973 | – | 1016.9 | 1030.7 | 1043.2 | 1055.5 | 1061.6 | 1067.6
